# This is one part of the list. These are noisy estimates, calculated here from bound and input reads.
# Molecular target: T1, Pho4 (S. cerevisiae) (UniProt P07270)
# T1 sequence: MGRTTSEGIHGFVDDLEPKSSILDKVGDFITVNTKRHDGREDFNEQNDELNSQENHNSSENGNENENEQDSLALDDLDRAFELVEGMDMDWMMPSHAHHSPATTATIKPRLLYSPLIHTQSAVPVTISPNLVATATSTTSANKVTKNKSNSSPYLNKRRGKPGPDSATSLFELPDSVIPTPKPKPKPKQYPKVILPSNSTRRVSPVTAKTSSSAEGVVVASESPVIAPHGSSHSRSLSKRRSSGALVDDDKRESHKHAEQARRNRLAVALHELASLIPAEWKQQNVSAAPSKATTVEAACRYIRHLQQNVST
# Assay: relative binding free energy (BET-seq); higher = weaker binding
# Conditions: reference: library average
row,Sequence,relative binding free energy [kJ/mol]
1,GAGAGCACGTGAAAGT,1.55
2,TGTCTCACGTGAGGGG,1.05
3,GATTGCACGTGCATGG,0
4,GGATTCACGTGTTCGG,1.21
5,GGTGGCACGTGCTCGG,-0.962
6,AAAATCACGTGGCTTG,0.962
7,TATGTCACGTGTCGGT,0.46
8,GTAAGCACGTGTAGAT,0.669
9,TGGTGCACGTGCCGTA,-0.293
10,GTCGACACGTGGTTTG,0.377
11,TGCGTCACGTGGTTAG,-0.335
12,AACAACACGTGTGTGG,0.502
13,ATTTACACGTGGATAG,-0.46
14,GGGTACACGTGTTGCA,0.46
15,GTACTCACGTGTTGTG,0.209
16,AGCCGCACGTGGAGTG,0.0418
17,TTTCACACGTGGTGAT,-0.251
18,TTTCACACGTGACGGG,1.3
19,TAAGTCACGTGTTCGG,0.126
20,GAGGTCACGTGTGTAG,0.377
21,GTTTGCACGTGGGCCA,0
22,GAACTCACGTGGGGTG,0.293
23,TTCCGCACGTGTGTGG,0.0837
24,TGTTACACGTGCGGTC,0.669
25,TTAGTCACGTGGGTAG,0.126

row,Sequence,relative binding free energy [kJ/mol]
1,TAGTTCACGTGATAAG,1.55
2,ATCATCACGTGTGGGT,1.05
3,GTGATCACGTGGAGGG,0.669
4,TGGGGCACGTGGCTAA,-0.377
5,TGAGGCACGTGAGGGT,0.502
6,ATATGCACGTGTCTTG,-0.669
7,ATGATCACGTGTTCGG,1
8,AAAGTCACGTGATTGT,0.669
9,TAGGACACGTGAGGTG,1.17
10,TGGTACACGTGAGTCT,1.38
11,TTTAACACGTGCATGT,-0.0418
12,CGGTACACGTGAGGAG,1.59
13,GAAGTCACGTGTTGGT,0.502
14,GTGTTCACGTGTATCA,0.711
15,TGGCTCACGTGCGGGA,0.92
16,TTGGTCACGTGTGGAG,0.795
17,TAGTACACGTGTGGGT,0.837
18,GGGGGCACGTGTCTTA,-0.502
19,GGTGCCACGTGCGGGT,-0.586
20,AGCGGCACGTGTTAGA,-0.209
21,GCAGTCACGTGTTGGC,0.586
22,AGGGGCACGTGGAGTT,-0.502
23,GGTCACACGTGAGTTG,1.13
24,CTGGACACGTGTAATG,0.335
25,TAGATCACGTGGCGAG,0.586

row,Sequence,relative binding free energy [kJ/mol]
1,GGTCCCACGTGGCGGT,0
2,CGTGTCACGTGGGACG,-0.251
3,CTTGACACGTGTCGGG,0.628
4,GCTGGCACGTGGGATA,-0.711
5,AGGGTCACGTGAAATT,1.55
6,CGGTTCACGTGGTTAG,1.38
7,GTGAGCACGTGGTGGA,-0.167
8,GTCTGCACGTGTTTTT,0.46
9,ATGGCCACGTGTTGAT,-0.628
10,GTTAACACGTGTTGTA,0.293
11,GGGGACACGTGTGCGT,-0.0837
12,GTAGGCACGTGGTGCG,-0.753
13,CTAGGCACGTGGTTAA,-0.795
14,GTGGGCACGTGCTAAT,0
15,TGCACCACGTGGTGTT,-0.46
16,ATTGTCACGTGCTGTG,0.251
17,GCGGTCACGTGCTAGG,-0.0418
18,CAAGTCACGTGGGGTG,-0.544
19,TAATTCACGTGGGTGA,0.837
20,GCGGGCACGTGTTGGT,0.418
21,TTGGTCACGTGCAGTA,0.418
22,GAATGCACGTGAGTGT,0.586
23,GAGGTCACGTGTTTGC,0.711

# Reference: the BET-seq Pho4 binding data (Le et al. 2018)
